# Measurements reported in article PMC6602471.
# This is one part of the list. At the low end of the ranking the order means little.
# Target: T1, ETS1 (UniProt P14921)
# T1 sequence: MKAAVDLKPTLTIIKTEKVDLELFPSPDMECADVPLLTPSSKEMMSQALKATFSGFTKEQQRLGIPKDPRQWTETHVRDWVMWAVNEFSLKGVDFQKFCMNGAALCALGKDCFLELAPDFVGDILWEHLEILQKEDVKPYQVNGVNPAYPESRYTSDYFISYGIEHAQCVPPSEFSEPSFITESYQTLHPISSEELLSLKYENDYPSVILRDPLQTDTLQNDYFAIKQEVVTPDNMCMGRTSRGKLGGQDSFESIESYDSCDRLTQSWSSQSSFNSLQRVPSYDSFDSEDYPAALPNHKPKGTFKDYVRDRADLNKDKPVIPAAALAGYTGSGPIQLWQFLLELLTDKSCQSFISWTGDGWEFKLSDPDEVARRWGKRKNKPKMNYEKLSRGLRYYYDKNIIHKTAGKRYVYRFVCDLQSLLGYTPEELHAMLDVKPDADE
# Assay: custom PBM
# Settings: custom protein-binding microarray; buffer, salt, pH and temperature not stated; high values mean tight binding; double strand, one strand shown
row,Sequence,binding signal (log fluorescence intensity)
1,GGAAAAAGGCCCAGGGTAACACCGGAAGTGGGCTGAGTCTTGATTCGCTTGACGCTGCTG,11.9
2,CTGGGGCTTGACCCAACTCTGCCACGTGGGTCGTTTGTCTTGATTCGCTTGACGCTGCTG,8.22
3,TACTGACTTATATATGAGAATGCACATGAATAGACCGTCTTGATTCGCTTGACGCTGCTG,8.19
4,GCTGCTGCGGTGCATATCCCACCGGATGTGACCCCGGTCTTGATTCGCTTGACGCTGCTG,10.6
5,TAAAGGGAAGACGGTCGTGGTAGTTCCGGGTATTAAGTCTTGATTCGCTTGACGCTGCTG,8.53
6,CACAATTTTTACAGTAATGTCGCACGCGTAACTCCTGTCTTGATTCGCTTGACGCTGCTG,8.28
7,GATTAATTTCTGCCCTTATTCTCACGTGCCATAACAGTCTTGATTCGCTTGACGCTGCTG,8.12
8,GACAATTTTTACAGTAATGTAGCACGCGTAACTCCTGTCTTGATTCGCTTGACGCTGCTG,8.05
9,TACTGACTTATATATGCGAATGCACATGAATAGCCCGTCTTGATTCGCTTGACGCTGCTG,8.25
10,TCCGGCTACCAGCTCCACCCACTTCAGGCCTTGTAAGTCTTGATTCGCTTGACGCTGCTG,8.24
11,TGTCGGGTAAGGGAATGTAGATCACGTGAAAGAAAAGTCTTGATTCGCTTGACGCTGCTG,8.17
12,GGAAAAAGGCCCTGGGTAACACCGGAAGTGGGCTTAGTCTTGATTCGCTTGACGCTGCTG,12
13,GTGTATAGGATCCCATCCAACACACGTGTTGAAATGGTCTTGATTCGCTTGACGCTGCTG,8.28
14,TACTGACTGATATATGCGAATGCACATGAATAGACCGTCTTGATTCGCTTGACGCTGCTG,8.27
15,GCTGCTGCGGTGCATACCCCGCCGGATGTGACCCCGGTCTTGATTCGCTTGACGCTGCTG,9.33
16,GGAAAAAGGCCCAGGGTAAAACCGGAAGTGGGCTTAGTCTTGATTCGCTTGACGCTGCTG,12.1
17,CTGGGACTTGACCCAACTCTGCCACGTGGGTCGTTTGTCTTGATTCGCTTGACGCTGCTG,8.2
18,GGAAAAAGGCCCAGGGTAACACCGGAACTGGGCTTAGTCTTGATTCGCTTGACGCTGCTG,9.07
19,TAAAGGGAAGAGGGTTGTGGTAGTTCCGGGTATTAAGTCTTGATTCGCTTGACGCTGCTG,8.6
20,GCTGCTGCGGTGCATACCCTACCGGATGTGACCCCGGTCTTGATTCGCTTGACGCTGCTG,10.2

row,Sequence,binding signal (log fluorescence intensity)
1,TGTCGGGTAAGGGAATGTAGATCTCGTGAATGAAAAGTCTTGATTCGCTTGACGCTGCTG,8.29
2,GCTGCTGCGTTGCATACCCCACCGGATGTGACCCCGGTCTTGATTCGCTTGACGCTGCTG,10
3,TAAAGCGAAGACGGTTGTGGTAGTTCCGGGTATTAAGTCTTGATTCGCTTGACGCTGCTG,8.48
4,TCCGGCTACCAGCTCCACCCACTTCAGGCCATGTAGGTCTTGATTCGCTTGACGCTGCTG,8.03
5,GATTAATTTCTGCCCTTATTCGCACGTGCCATAACAGTCTTGATTCGCTTGACGCTGCTG,8.22
6,CGGAAGTGTCGTAAACGTCGGATATGCGGTTCTTCTGTCTTGATTCGCTTGACGCTGCTG,8.38
7,CTGGGACTTGACCCAACTCTGCCGCGTGGGTCGTTTGTCTTGATTCGCTTGACGCTGCTG,8.26
8,TACTGACTTATATATGCGAATGCACATGAATAGGCCGTCTTGATTCGCTTGACGCTGCTG,8.29
9,TCCGTCTACCAGCTCCACCCACTTCAGGCCTTGTAGGTCTTGATTCGCTTGACGCTGCTG,8.24
10,GATTGATTTCTGCCCTTATTCGCACGTGCCATAACAGTCTTGATTCGCTTGACGCTGCTG,8.24
11,CGGAAGTGTCGTAAACGTCGGACATCCGGTTCTTCTGTCTTGATTCGCTTGACGCTGCTG,12.6
12,TACTGACTTATATATGCGAATGCACATGAATAGATCGTCTTGATTCGCTTGACGCTGCTG,8.17
13,CACAATTTTTACAGTAATGCAGCACGCGTAACTCCTGTCTTGATTCGCTTGACGCTGCTG,8.2
14,CACAATTTTTCCAGTAATGTAGCACGCGTAACTCCTGTCTTGATTCGCTTGACGCTGCTG,8.25
15,TCCGGCTACCAGCTCCACCCACTTCAGGCCTTCTAGGTCTTGATTCGCTTGACGCTGCTG,8.09
16,CACCATTTTTACAGTAATGTAGCACGCGTAACTCCTGTCTTGATTCGCTTGACGCTGCTG,8.16
17,CGGTAGTGTCGTAAACGTCGGATATCCGGTTCTTCTGTCTTGATTCGCTTGACGCTGCTG,11.8
18,GTGTATAGGATCCCATCCAACACGCGTGTTAAAATGGTCTTGATTCGCTTGACGCTGCTG,8.17
19,GCTGCTGCGGCGCATACCCCACCGGATGTGACCCCGGTCTTGATTCGCTTGACGCTGCTG,10
20,TGTCGGGTAAGGGAATGTAGATGACGTGAATGAAAAGTCTTGATTCGCTTGACGCTGCTG,8.36
